Sequences and labels used below:
B1: LINE1-mini (parent)
chain: GGCAGAGCUCAACACAGCGUGGCAAAGUGGCUGUGGCUAGACUGCC

Read counts are not given, so values of variants with three or more changes are uncertain.

In this series the parent is B1. As to the kind of experiment: self-cleavage, relative activity (ratio to wild type); higher = more cleavage; in vitro, sequencing; the parent is a self-cleaving ribozyme.
As to GGCAGAGCUCAACACCGCGCGGCAAAGUGGCUGUGGGUAGACUGCC [A16C U20C C37G], the self-cleavage was determined as 0.03.

In the case of GGCAGAGCUCAACACCGCGUGGUAAAGUCGCUGUGGCUAGACUUCC [A16C C23U G29C G44U], the self-cleavage stood at 0.23.

As to GGCAGAGCUCAACACCGCGUGGCACAGGGGCUGUGGCUAGACUGCC [A16C A25C U28G], the self-cleavage is 0.04.

For GGCAGAGCUCAACACGGCGUGACAAAGUGGCUGUGGCUAGACUGCU [A16G G22A C46U], the self-cleavage worked out at 0.09.

For GGCAGAGCUCAACAUAGCGUGGCAAAGUGGCGGUGGUUAGAAUGCC [C15U U32G C37U C42A], the self-cleavage came to 0.05.

Regarding GGCAGAGCUCAACACCGCGGGGCAAAGUGGCUGUGGCUAGGCUGCC [A16C U20G A41G], the self-cleavage turned out to be 0.05.

Regarding GGCAGAGCUCAACACCGCGUGGUAAAGUGGCUGUGGUUAGACUGCC [A16C C23U C37U], the self-cleavage was determined as 0.01.

In the case of GGCAGAGCUCAACACGGCCAGGCAAAGUGGCUGUGGCUAGACUUCC [A16G G19C U20A G44U], the self-cleavage was 0.01.

Consider GGCAGAGCUCAACACCGCGUCGCAAACUGGCUGUGGCUAGACUGUC [A16C G21C G27C C45U], for which the self-cleavage was found to be 0.04.

For GGCAGAGCUCAACACGGCGUGGCACAGUGACUGUGGCUAGACUGCC [A16G A25C G30A], the self-cleavage was found to be 0.03.

With GGCAGAGCUCAACACGGCGUGUCACAGUGGCUGUGGAUAGACUGCC [A16G G22U A25C C37A], the self-cleavage was 0.11.

As for GGCAGAGCUCAACACCGCGUGGCAAAGUGGCUGUGGCCAGAAUGCC [A16C U38C C42A], the self-cleavage came to 0.01.

As to GGCAGAGCUCAACACCUCGUGGCAAAGUGGUUGUGGCUAGACUGCU [A16C G17U C31U C46U], the self-cleavage came to 0.04.

Regarding GGCAGAGCUCAACAUAGCGUGGCAAAGUGGCUGUGGCAAGACUGAC [C15U U38A C45A], the self-cleavage came out at 0.4.

In the case of GGCAGAGCUCAACACCGGGUGACAAAGUGGCUGUGGCUAGACUGCC [A16C C18G G22A], the self-cleavage was 0.03.

GGCAGAGCUCAACACGGCGUGGAAAAGUGGCUGUCGCUAGACUGCC [A16G C23A G35C]: the self-cleavage is 0.04.

On to GGCAGAGCUCAACACCGUUUGGCAAAGUGGUUGUGGCUAGACUGCC [A16C C18U G19U C31U], for which the self-cleavage amounted to 0.01.

With GGCAGAGCUCAACACGGCGUGGCUAUGUGGCUGUGGCUAGACUGCC [A16G A24U A26U], the self-cleavage stood at 0.46.

GGCAGAGCUCAACACGGGGUGCCAAAUUGGCUGUGGCUAGACUGCC [A16G C18G G22C G27U]: the self-cleavage stood at 0.35.

Turning to GGCAGAGCUCAACACGGCGUGGUAACGUGGCUGUGGAUAGACUGCC [A16G C23U A26C C37A], the self-cleavage was 0.12.

For the variant GGCAGAGCUCAACACCGCGUGGCAAAGUGGCUGUUGCUGGACUGCC [A16C G35U A39G], the self-cleavage was 0.07.

GGCAGAGCUCAACACGGCGUGGGAAAGUGGCUGUGGCGAAACUGCA [A16G C23G U38G G40A C46A]: the self-cleavage came to 0.

As for GGCAGAGCUCAACACCGCGUGGAAAAGUGACUGUGGCUAGACAGCC [A16C C23A G30A U43A], the self-cleavage amounted to 0.07.

For GGCAGAGCUCAACACGGCGUGGCAACGUGGACGUAGCUGGACUGAU [A16G A26C C31A U32C G35A A39G C45A C46U], the self-cleavage is 0.01.

Turning to GGCAGAGCUCAACACCGUGUGGCAAAGUGGCUGUGGGUAGACUGCC [A16C C18U C37G], the self-cleavage is 0.03.

For the variant GGCAGAGCUCAACACCGCGUGGCCAAGUGGCUGAGGCUAGACUGCC [A16C A24C U34A], the self-cleavage was 0.01.

On to GGCAGAGCUCAACACCGCGUGGCAAAGUGACUGUGGCUAGACUGGC [A16C G30A C45G], for which the self-cleavage was found to be 0.03.

Consider GGCAGAGCUCAACACCGCGUCACAAAUUGGCUGUGGCUAGACUGCC [A16C G21C G22A G27U], for which the self-cleavage was determined as 0.07.

Turning to GGCAGAGCUCAACACGGCGUGGCAAGGUGGCUGUGUCUAGACUGCC [A16G A26G G36U], the self-cleavage was determined as 0.08.

Regarding GGCAGAGCUCAACACCGCGUGGCAAAGUGGCUGAGGCUAGUCUGCC [A16C U34A A41U], the self-cleavage stood at 0.

Turning to GGCAGAGCUCAACACCGCGUGGCAAAGUGGCUCUGGCUAGACUGCA [A16C G33C C46A], the self-cleavage was 0.02.

GGCAGAGCUCAACACCGCGUGGCAAAGUGGCUGGAGUUAGACUGCC [A16C U34G G35A C37U]: the self-cleavage was found to be 0.

Consider GGCAGAGCUCAACACCGCGUGGCAUAGUGGCUGUGGCAAGACUGCC [A16C A25U U38A], for which the self-cleavage amounted to 0.05.

For GGCAGAGCUCAACACCGCGUGGCAAAGUGCCUGUGGCUAGACUGUA [A16C G30C C45U C46A], the self-cleavage stood at 0.05.

In the case of GGCAGAGCUCAACACGGCGUGACAAAGUGGCUGUGGGUAGACUGCC [A16G G22A C37G], the self-cleavage was 0.02.

Take GGCAGAGCUCAACACCGCGUGACAAAGUGGCUGUGGUUAGACUGCC [A16C G22A C37U]: the self-cleavage is 0.1.

For the variant GGCAGAGCUCAACACCGCGUGCCAAAGUGGCGGUGGCUAGACUGCC [A16C G22C U32G], the self-cleavage came to 0.27.

On to GGCAGAGCUCAACACCGCGUGGCAAUGUGGCUGUGGCGAGACUGCC [A16C A26U U38G], for which the self-cleavage was 0.

Take GGCAGAGCUCAACACGGCGUGGCAAAGUGGCUGUGGCUUGACCGCC [A16G A39U U43C]: the self-cleavage was found to be 0.04.

On to GGCAGAGCUCAACACCGCGAAGCAAAGUGGCUUGGGCUAGACUGCC [A16C U20A G21A G33U U34G], for which the self-cleavage turned out to be 0.01.

Consider GGCAGAGCUCAACACCGCGUGGCAAAGUAGCUGUGGCCAGGCUGCC [A16C G29A U38C A41G], for which the self-cleavage came out at 0.01.

Consider GGCAGAGCUCAACACGGGGUGGCAAAGUGGCUGUGGCAAGACUGCC [A16G C18G U38A], for which the self-cleavage worked out at 0.02.

As to GGCAGAGCUCAACACCGCGUGGCAACGUGGCUGUGGCUAGAUUGAC [A16C A26C C42U C45A], the self-cleavage is 0.06.

For the variant GGCAGAGCUCAACACCGCGUCGCAAAGUGGUUGUCGCUGGACUGCC [A16C G21C C31U G35C A39G], the self-cleavage was 0.01.

With GGCAGAGCUCAACACGGCGUGGGAAAGUGGCUGUGGUUAGACUGCC [A16G C23G C37U], the self-cleavage is 0.02.

As for GGCAGAGCUCAACACCGCCUGGCAAAGUGGAUGUGGCUAGAAUGCC [A16C G19C C31A C42A], the self-cleavage was determined as 0.03.

For GGCAGAGCUCAACAUAGCGUGGCAAAGUGGCUGCUGCUAGACUGCC [C15U U34C G35U], the self-cleavage amounted to 0.16.

As to GGCAGAGCUCAACACCGCGUGGCAAAGUGGCUGGGGCUAGCCUUCC [A16C U34G A41C G44U], the self-cleavage worked out at 0.01.

In the case of GGCAGAGCUCAACACCGCGCGGCAAAGUGGCUGUUGCUAGACUGCC [A16C U20C G35U], the self-cleavage came to 0.03.

Take GGCAGAGCUCAACAUAGCGUGGCAAAGUGGCGGUGGCUAGUCUGCC [C15U U32G A41U]: the self-cleavage worked out at 0.

In the case of GGCAGAGCUCAACACGGCGUGGCAUAGUGGCUGUGGAUAGACUGCC [A16G A25U C37A], the self-cleavage came out at 0.05.

As for GGCAGAGCUCAACAUAGCGUGGCAAAGUGGCAGUGGCAAGACUGCC [C15U U32A U38A], the self-cleavage came out at 0.11.

Consider GGCAGAGCUCAACACCGCGUGGCAAAGUGGAUGUGGCUAGCCUGCC [A16C C31A A41C], for which the self-cleavage was determined as 0.04.

As to GGCAGAGCUCAACACGGGGUGGCAAAUUGGCUGUGGCUACACUGCC [A16G C18G G27U G40C], the self-cleavage turned out to be 0.

Consider GGCAGAGCUCAACAUAGCGUGGCAAAGUGGCUGUGGCAAGUCUGCC [C15U U38A A41U], for which the self-cleavage was determined as 0.27.

Turning to GGCAGAGCUCAACAUAGCGUGGCAAAGUGGCAUUGGAUAGACUGGC [C15U U32A G33U C37A C45G], the self-cleavage worked out at 0.05.

(Values after the RNAGym collection of RNA variant scans (doi:10.7554/elife.90254).)
